Measured values from paper PMC12820563.
The other results are listed elsewhere or left out. The list includes weakly bound sequences.

Each sequence was assayed against T1, MBP-FoxP3dN (UniProt Q99JB6) (assay: PD-seq (MBP pull-down with sequencing)). Details: 20 mM Tris-HCl pH 7.5, 100 mM NaCl, 1.5 mM MgCl2, 0.4 uM protein, 0.1 uM dsDNA library, 30 min, room temperature, amylose pull-down; high values mean tight binding; double strand, one strand shown.
T1 sequence: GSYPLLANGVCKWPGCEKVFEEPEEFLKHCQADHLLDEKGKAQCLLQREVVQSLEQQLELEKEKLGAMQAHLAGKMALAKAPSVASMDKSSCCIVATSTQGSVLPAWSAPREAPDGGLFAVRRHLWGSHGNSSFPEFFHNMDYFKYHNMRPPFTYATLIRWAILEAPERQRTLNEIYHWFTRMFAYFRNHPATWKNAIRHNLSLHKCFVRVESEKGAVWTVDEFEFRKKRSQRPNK
“GATGATTGTTCTCCCAGCTGATGAATTGCCGGTTTCGAGTAAACAAATTTTCCTAATCTTTCTGTTCAAGCGCCATCTAC” showed a binding signal (RPM ratio (pull-down/input)) of 0.667.
“GATGATTGTTCTCCCAGCTGATGAATTCGCGTTCTCGAGTAAACAAATTTTCCTAATCTTTCTGTTCAAGCGCCATCTAC” gave a binding signal (RPM ratio (pull-down/input)) of 1.15.
Work on “GATGATTGTTCTCCCAGCTGATGAATTCAATGCCTCGAGTAAACAAATTTTCCTAATCTTTCTGTTCAAGCGCCATCTAC” yielded a binding signal (RPM ratio (pull-down/input)) of 1.05.
“GATGATTGTTCTCCCAGCTGATGAATTCCAATGGTCGAGTAAACAAATTTTCCTAATCTTTCTGTTCAAGCGCCATCTAC” was tested, and the binding signal (RPM ratio (pull-down/input)) was 0.37.
“GATGATTGTTCTCCCAGCTGATGAATTTGTGCCCTCGAGTAAACAAATTTTCCTAATCTTTCTGTTCAAGCGCCATCTAC” was tested, and the binding signal (RPM ratio (pull-down/input)) was 2.05.
Work on “GATGATTGTTCTCCCAGCTGATGAATTACCTTCTTCGAGTAAACAAATTTTCCTAATCTTTCTGTTCAAGCGCCATCTAC” yielded a binding signal (RPM ratio (pull-down/input)) of 0.339.
In the case of “GATGATTGTTCTCCCAGCTGATGAATTTGACCGTTCGAGTAAACAAATTTTCCTAATCTTTCTGTTCAAGCGCCATCTAC”, the binding signal (RPM ratio (pull-down/input)) is reported as 0.355.
In the case of “GATGATTGTTCTCCCAGCTGATGAATTGCTAGTTTCGAGTAAACAAATTTTCCTAATCTTTCTGTTCAAGCGCCATCTAC”, the binding signal (RPM ratio (pull-down/input)) is reported as 0.902.
Work on “GATGATTGTTCTCCCAGCTGATGAATTAAGACAGTCGAGTAAACAAATTTTCCTAATCTTTCTGTTCAAGCGCCATCTAC” yielded a binding signal (RPM ratio (pull-down/input)) of 0.324.
Sequence “GATGATTGTTCTCCCAGCTGATGAATTTTTTATCTCGAGTAAACAAATTTTCCTAATCTTTCTGTTCAAGCGCCATCTAC” has a binding signal (RPM ratio (pull-down/input)) of 0.243.
For “GATGATTGTTCTCCCAGCTGATGAATTGTTACACTCGAGTAAACAAATTTTCCTAATCTTTCTGTTCAAGCGCCATCTAC”, the binding signal (RPM ratio (pull-down/input)) was 1.28.
“GATGATTGTTCTCCCAGCTGATGAATTTTAGATTTCGAGTAAACAAATTTTCCTAATCTTTCTGTTCAAGCGCCATCTAC” was tested, and the binding signal (RPM ratio (pull-down/input)) was 0.328.
“GATGATTGTTCTCCCAGCTGATGAATTGCGGGCATCGAGTAAACAAATTTTCCTAATCTTTCTGTTCAAGCGCCATCTAC” showed a binding signal (RPM ratio (pull-down/input)) of 1.32.
With “GATGATTGTTCTCCCAGCTGATGAATTACGTCGTTCGAGTAAACAAATTTTCCTAATCTTTCTGTTCAAGCGCCATCTAC” the binding signal (RPM ratio (pull-down/input)) was 0.719.
“GATGATTGTTCTCCCAGCTGATGAATTCGTTTTATCGAGTAAACAAATTTTCCTAATCTTTCTGTTCAAGCGCCATCTAC” gave a binding signal (RPM ratio (pull-down/input)) of 1.55.
“GATGATTGTTCTCCCAGCTGATGAATTTACGTACTCGAGTAAACAAATTTTCCTAATCTTTCTGTTCAAGCGCCATCTAC” showed a binding signal (RPM ratio (pull-down/input)) of 0.753.
Sequence “GATGATTGTTCTCCCAGCTGATGAATTAGGATGTTCGAGTAAACAAATTTTCCTAATCTTTCTGTTCAAGCGCCATCTAC” has a binding signal (RPM ratio (pull-down/input)) of 0.82.
With “GATGATTGTTCTCCCAGCTGATGAATTGGCAGTATCGAGTAAACAAATTTTCCTAATCTTTCTGTTCAAGCGCCATCTAC” the binding signal (RPM ratio (pull-down/input)) was 0.579.
